For four compounds, GI50 and TGI results are on record in PubChem BioAssay (NCI).

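How tested: cells in 96-well plates exposed to compound for 48 hours at five concentrations. GI50 = concentration required for 50% inhibition of growth. TGI marks complete inhibition of growth.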 Some results are limits rather than exact numbers.

The test concerns NCI-H322M lung. Kind of test: NCI-60 cell line screen, 48 h.
With `CC1=C(C=O)C2=C(C)C3(CC3)[C@@](C)(O)C(=O)C2=C1`, the GI50 is 0.327 µM and the TGI was found to be 1.23 µM.
In the same order, the values of `O=C(Cn1c(/C=C/c2ccccc2)nc2ccccc2c1=O)Nc1ccc(Cl)cc1` are over 100 µM and over 100 µM.
With `Cn1cc(-c2cc(N)n3nc(-c4c[nH]c5ccccc45)cc3n2)c2cc(Cl)ccc21`, the GI50 was 4.54 µM and the TGI came out at 20.4 µM.
As to `COc1ccc2[nH]cc(/C=N/Nc3ccc(Br)cn3)c2c1`, the GI50 was 13.4 µM and the TGI was over 100 µM.
